Test results as given in the RNAGym collection of RNA variant scans (doi:10.7554/elife.90254).
The source gives no read counts; variants with many changes may rest on few reads.

B1: LINE1-mini (parent)
chain: GGCAGAGCUCAACACAGCGUGGCAAAGUGGCUGUGGCUAGACUGCC

Variants of: B1
Assay: self-cleavage, relative activity (ratio to wild type); higher = more cleavage; in vitro, sequencing; the parent is a self-cleaving ribozyme

Variant	self-cleavage
GGUAGAGGUCAACACAGCGUGGCAAAGUGGCUGGGGCUAGACUGGC [C3U C8G U34G C45G]	0.08
GGUAGAGUUCAACAAAGAGUGGCAAAGUGGCUCUGACUAGACUGCC [C3U C8U C15A C18A G33C G36A]	0.05
GGUAGAGCUCAAGAUAGCGUGACAAAGUGGCUGCGGCUAGAGUGCC [C3U C13G C15U G22A U34C C42G]	0.19
GGUAGAGCUGUACACAGGGUGGCAAAGUUGCUGUGGCCAGACUGCC [C3U C10G A11U C18G G29U U38C]	0.01
GGUAGAGUUCAACACAGCGUGGCAAAGUGGCUGUGGCUAGACUACC [C3U C8U G44A]	0.36
GGUAGAGCUACACACAUCGUGGCAAAAUGGCUGUGGCUAGACUGCC [C3U C10A A11C G17U G27A]	0.04
GGUAGAGCUCAACAAAGCGUGGCAAAGUGGCUUAGGCUAGACUCCC [C3U C15A G33U U34A G44C]	0.04
GGUAGAGAUCAACACAACGUUGCAAACUGGCUGUCUCUAGAUUGCC [C3U C8A G17A G21U G27C G35C G36U C42U]	0.07
GGUAGAGAUCAACACAGCGUGGCAAAGUGGCUGUGGCUAGAAUGCC [C3U C8A C42A]	0.31
GGUAGAGCUCAACAGAGCGCGGCGAAGUGGUUGUGGGUAGACUGCC [C3U C15G U20C A24G C31U C37G]	0.09
GGUAGAGCUCAACAAAGCGUGGCACAGUGGCUGUGGCUAGACUACC [C3U C15A A25C G44A]	0.02
GGUAGAGCUAAACUCAGCGUGGCAAAGUGGCUGUGGCUAGACUGCC [C3U C10A A14U]	0.03
GGUAGAGGUCAACAUAGCUUGGCAAAGUGGCGGUGGCUAGACUGCC [C3U C8G C15U G19U U32G]	0.03
GGUAGAGCUUAGCACAGCGUGGCAUAGGGGCUGUGGGUAGACUGCC [C3U C10U A12G A25U U28G C37G]	0.01
GGUAGAGCUUAACACAGCGUGGCAAAGUGGCUGUGGUUAGACUGCC [C3U C10U C37U]	0.07
GGUAGAGUUCAACCCAGCGUGGCAAAGUGGCGCUGGCUAGACUGCC [C3U C8U A14C U32G G33C]	0.03
GGUAGAGCUCAAGACAGCGUGGCAAAGUGACUGUGGCUAGACUGCC [C3U C13G G30A]	0.02
GGUAGAGCUUAACACAGUGUGGCAAAGUCGCUUUGGCUAGACCGCC [C3U C10U C18U G29C G33U U43C]	0.01
GGUAGAGUUCAACACAGCGUGGCACACUGGCUGUGGUUAGACUGAC [C3U C8U A25C G27C C37U C45A]	0.08

Variant	self-cleavage
GGUAGAGUUCAACACAGCGUGGCAACGGGGCUGUGGCUAGACUGCC [C3U C8U A26C U28G]	0.02
GGUAGAGCUAAACACAGCGUGGCAAAGUGGCUGAGGAUAGACUGCC [C3U C10A U34A C37A]	0.01
GGUAGAGCUAAACACAGCGUGGCGAAGUGGCUGUGCCUAGACUGCC [C3U C10A A24G G36C]	0
GGUAGAGCUCAACAUAGCGUGGCAAAGUGGCUGUGGCUAGACUGAC [C3U C15U C45A]	0.11
GGUAGAGCUCAAAACAGCGUGGCAAAGUGGCUGUGCCUAGACUGCC [C3U C13A G36C]	0.06
GGUAGAGUUCAACACAGCGUGGCAAAGCGGCUGUGGCUAGACUGCC [C3U C8U U28C]	0.13
GGUAGAGCUCAAUACAUGGUGGCAAAGUGGCUGUGGCUCCACUGCC [C3U C13U G17U C18G A39C G40C]	0.05
GGUAGAGCUGAACACAGCGUGGCAAAGGGGCUGUGGCUAGACUGCC [C3U C10G U28G]	0.05
GGUAGAGCUUAACACAGCGUGGCAAAGAGGCUGUGGCUACACUGCC [C3U C10U U28A G40C]	0.02
GGUAGAGCUCAAUACAGCGUGGAAAAGUGCCUGUGGCUAGACUGCC [C3U C13U C23A G30C]	0.04
GGUAGAGCUUAACACUGCGUGGCUAAGUGGCUGUGGAUAGACUGCC [C3U C10U A16U A24U C37A]	0.07
GGUAGAGCUCAACAACGCGUGGCACAGUGGCUGUGGCUAGACUGCC [C3U C15A A16C A25C]	0.07
GGUAGAGCUGAACACAGCGUGGCAUAGUGGCUGUGGCUAGACUGCC [C3U C10G A25U]	0.03
GGUAGAGCUCAACAUAGCGGGGCAAAGUGGCUGUGGCUAGUCUGGC [C3U C15U U20G A41U C45G]	0.16
GGUAGAGCUGAACACAGCGUGGCAAUAUGGCUGGGGCUGGACUGCC [C3U C10G A26U G27A U34G A39G]	0.02
GGUAGAGUUCAACACAGCGUGGCAAAGUGGCUGUGGCUAGACUGCG [C3U C8U C46G]	0.08
GGUAGAGCUCAACAGAGUGUGGCAAAGUGGCUGUUGCUAGACUGCC [C3U C15G C18U G35U]	0.08
GGUAGAGCUCAAAAAAGCGUGGCAAAGUGGCUGUGGCAAGACUGCC [C3U C13A C15A U38A]	0.12
GGUAGAGAUCAACACAGCUUGGCAAAGUGGCUGCGGCUAGACUGCC [C3U C8A G19U U34C]	0.33

Variant	self-cleavage
GGUAGAGCUAAACACAGCUUGGCAAAGUGGCUGUGGCUAGACUGCC [C3U C10A G19U]	0.06
GGUAGAGCUAAACACAGCCUGGCAAAGUGGCUGUGGCUAGACUGCC [C3U C10A G19C]	0.03
GGUAGAGCUGAACACCGUGUGGCAAUGUGGCUCUGGCUAGACUGCC [C3U C10G A16C C18U A26U G33C]	0.02
GGUAGAGCUCAAUACAGCGUGGCAAAGUGGCUGUGGCUAUACUGCA [C3U C13U G40U C46A]	0.14
GGUAGAGCUCAAUACAGCGUGGAAAAGUGGCUGUGGCUAGGCUGCC [C3U C13U C23A A41G]	0.53
GGUAGAGCUGAUCACAGCGUGGCAAGGUGGCUGUGGUUAGACUGCC [C3U C10G A12U A26G C37U]	0
GGUAGAGGUCAUCACAGCGUGGCAAAGUGGCAGUGGCUAGACUGCC [C3U C8G A12U U32A]	0
GGUAGAGCUACACACAGUGUGGCAAAGUGGCUGUGGCUAGACUGCC [C3U C10A A11C C18U]	0.02
GGUAGAGUUCAACACAGCGUGGCAAAGUGGCUGUGGCUCAACCGGC [C3U C8U A39C G40A U43C C45G]	0.1
GGUAGAGCUCAAUAUAGCGUGCCAAUGUGGCUGUGGCUAGACUGCC [C3U C13U C15U G22C A26U]	0.47
GGUAGAGCUCAAUACAGCCUGGCAAAGUGGCUGUGGCUAGACUGAC [C3U C13U G19C C45A]	0.02
GGUAGAGCUAAACACAGCGUGUCAAAGUGGAUGUGGCUAGACUGCC [C3U C10A G22U C31A]	0.01
GGUAGAGCUCAACAAAGGGUGGCAAAGUGGCUGUGGCUAGACUGCU [C3U C15A C18G C46U]	0.05
GGUAGAGCUUAACACAGCGUCUCCAAGUGGCUGUGGCUAGCCUGCC [C3U C10U G21C G22U A24C A41C]	0.02
GGUAGAGCUCAAUACAGCGUGGCACAGUGGCUGUGUCGAGGCUGAC [C3U C13U A25C G36U U38G A41G C45A]	0.04
GGUAGAGCUAAACACAGCGUGGCUAAGUGGCUGUGGCUAGACUGCC [C3U C10A A24U]	0.42
GGUAGAGGUCAACACAGCGUGGCAAAGUGGCUGUGGCUAUUCUGCC [C3U C8G G40U A41U]	0.1
GGUAGAGCUAAACACAGCGUGGCAAAGUGGCUGUCGCUAGACUGCC [C3U C10A G35C]	0.03
